Results from article PMC4336329 (PLoS ONE, 2015).
About 14,000 (4.5%) of roughly 310,000 compounds showed an effect of 50% or more. The effect is printed as a negative number. This is one part of the list.

These compounds were tested against human ether-à-go-go-related gene (hERG) potassium channel (human, UniProt Q12809) (assay: primary screen, population patch clamp on CHO cells stably expressing hERG).
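Also: peak tail current of the secondary pulse compared with the same well before compound.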

Sequence of human ether-à-go-go-related gene (hERG) potassium channel (Q12809 whole entry, looked up): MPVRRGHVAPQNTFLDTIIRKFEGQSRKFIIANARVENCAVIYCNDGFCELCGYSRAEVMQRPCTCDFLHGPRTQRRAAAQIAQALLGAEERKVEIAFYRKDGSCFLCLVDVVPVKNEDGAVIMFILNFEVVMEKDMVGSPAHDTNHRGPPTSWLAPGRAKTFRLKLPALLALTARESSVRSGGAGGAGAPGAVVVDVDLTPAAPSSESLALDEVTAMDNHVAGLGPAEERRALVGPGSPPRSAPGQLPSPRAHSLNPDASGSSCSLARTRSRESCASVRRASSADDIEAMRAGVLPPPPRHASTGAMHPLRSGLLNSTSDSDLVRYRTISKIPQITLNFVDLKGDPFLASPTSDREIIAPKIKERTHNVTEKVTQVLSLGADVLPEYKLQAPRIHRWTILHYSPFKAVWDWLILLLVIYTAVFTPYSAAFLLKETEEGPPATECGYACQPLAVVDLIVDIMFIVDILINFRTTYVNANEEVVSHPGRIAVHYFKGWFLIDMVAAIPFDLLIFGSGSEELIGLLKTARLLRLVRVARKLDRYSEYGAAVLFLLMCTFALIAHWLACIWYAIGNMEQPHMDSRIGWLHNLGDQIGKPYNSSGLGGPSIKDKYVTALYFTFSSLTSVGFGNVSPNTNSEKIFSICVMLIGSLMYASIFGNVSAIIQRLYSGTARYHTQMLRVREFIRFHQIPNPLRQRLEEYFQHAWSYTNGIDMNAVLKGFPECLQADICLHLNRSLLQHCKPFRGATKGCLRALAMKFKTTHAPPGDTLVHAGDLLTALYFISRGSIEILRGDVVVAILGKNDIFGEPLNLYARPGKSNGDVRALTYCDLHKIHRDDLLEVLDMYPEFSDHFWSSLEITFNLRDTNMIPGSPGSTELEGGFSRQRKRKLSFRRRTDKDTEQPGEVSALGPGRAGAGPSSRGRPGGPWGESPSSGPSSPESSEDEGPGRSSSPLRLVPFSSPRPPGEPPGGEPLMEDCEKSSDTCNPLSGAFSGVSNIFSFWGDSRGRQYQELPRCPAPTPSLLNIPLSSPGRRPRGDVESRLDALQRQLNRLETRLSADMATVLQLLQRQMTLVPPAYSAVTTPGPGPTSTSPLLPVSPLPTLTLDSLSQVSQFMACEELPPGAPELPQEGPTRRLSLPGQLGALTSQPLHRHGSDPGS

SMILES | hERG current change (%, negative = inhibition) at 10uM [%]
CC(=O)N1c2ccccc2N(Cc2ccc([N+](=O)[O-])cc2)C(=O)C1(C)C | -2.41
CC1CCCN(C(=O)CSc2n[nH]c(-c3cccs3)n2)C1 (stereo not shown) | 1.03
CCOC(=O)c1cc(C)n(-n2cnnc2)c1C | -0.599
CCc1ccc(-c2nc(SCC(=O)c3c(N)n(C4CC4)c(=O)[nH]c3=O)n[nH]2)cc1 | -14
Cn1c(SCC(=O)c2ccccc2)nnc1-c1cnccn1 | 6.47
O=C(CCn1nc(-c2ccc(Cl)cc2)c2ccccc2c1=O)NN1CCOCC1 | -29.8
Cc1cc(C)n2nc(S(=O)(=O)N(C)c3ccccc3)nc2n1 | 8
Cl.O=C(Cn1c(NCCO)nc2ccccc21)c1ccc(Cl)cc1Cl | -11.2
Cc1ccc(C(=O)Oc2ccccc2N2C(=O)C3CCC(C)CC3C2=O)cc1 (stereo not shown) | -9.79
CC(C)(C)NC(=O)c1ccc(COc2ccc(Cl)cc2Cl)o1 | 3.88
COc1ccc(C(=O)NN(C)c2nc(-c3ccccc3)cc(C)c2S(C)(=O)=O)cc1 | 9.62
COc1c2occc2cc2ccc(=O)oc12 | 10.8
O=C(/C=C/c1ccco1)NC(=S)Nc1ccccc1 | 17.3
Cc1cc(C)n2nc(C(=O)OCC(=O)Nc3cc(Cl)ccc3C)nc2n1 | -4.78
Cc1cc(C)c(S(=O)(=O)N2CCc3ccccc32)c(C)c1 | 22.9
Nc1nc(N)c2sc3nc4c(cc3c2n1)CCC4 | -1.09
CC12CCC(=O)N1C(C(=O)OCC(=O)Nc1cccc(S(=O)(=O)N3CCCCCC3)c1)CS2 (stereo not shown) | -86.8
CCCNc1nc(Cl)nc(NCc2cccnc2)n1 | 4.75
Nc1nc(N)nc(-c2ccccc2)n1 | 18.7
Cc1c(-c2nc(-c3ccc(C(F)(F)F)cc3)no2)n(C)oc1=O | 8.16
CCN1C(=O)[C@H]2[C@@H](c3ccc(C)cc3)N3C(=O)N(c4cccc(Cl)c4)C(=O)[C@@]3(C)[C@H]2C1=O | 10.5
COc1ccc(CCC(C)NCCc2ccccc2)cc1 (stereo not shown) | -29.6
COC(=O)CNC(=O)c1ccc2c(c1)S(=O)(=O)c1ccccc1C2=O | -4.35
COc1cc(Cl)c(C)cc1NC(=O)c1ccc(S(C)(=O)=O)cc1 | -5.28
O=C(c1cc(-c2ccco2)nc2ccccc12)N1CCN(Cc2ccccc2)CC1 | -42.8
